This is a selection; strong and weak results do not stand in their true shares. For part of these data: At the low end of the ranking the order means little. This is one part of the list. For part of these data: The source does not settle which construct or isoform was used.

Common to all, as to test: universal protein binding microarray (PBM)
Holding throughout (conditions): transcription factors of Arabidopsis thaliana; high values mean tight binding; most listed sequences are background and not binding sites; double strand, one strand shown

The target in one assay is T1, GST-ANAC055(1-171) (UniProt Q9LDY8).
T1 sequence: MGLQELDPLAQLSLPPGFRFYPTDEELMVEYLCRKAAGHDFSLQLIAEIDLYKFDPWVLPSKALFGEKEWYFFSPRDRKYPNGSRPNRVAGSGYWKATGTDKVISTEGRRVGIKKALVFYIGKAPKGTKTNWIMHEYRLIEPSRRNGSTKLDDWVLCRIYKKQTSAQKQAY

Another assay deals with T2, GST-NAP(1-166) (UniProt O49255).
T2 sequence: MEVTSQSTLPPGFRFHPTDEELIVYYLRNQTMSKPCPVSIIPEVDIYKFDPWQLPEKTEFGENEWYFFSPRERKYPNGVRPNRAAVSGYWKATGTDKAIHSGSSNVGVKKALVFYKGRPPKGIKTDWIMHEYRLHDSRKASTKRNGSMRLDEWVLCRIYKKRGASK

Another assay concerns the target T3, GST-NTL8 NAC domain (UniProt Q9XIN7).
T3 sequence: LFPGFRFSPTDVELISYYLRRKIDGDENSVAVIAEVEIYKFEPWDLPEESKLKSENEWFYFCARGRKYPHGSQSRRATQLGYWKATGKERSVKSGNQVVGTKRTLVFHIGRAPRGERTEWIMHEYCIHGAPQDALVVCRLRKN

Assay [1] concerns the target T4, GST-VOZ2 (Arabidopsis thaliana) (UniProt Q9SLB9).
T4 sequence: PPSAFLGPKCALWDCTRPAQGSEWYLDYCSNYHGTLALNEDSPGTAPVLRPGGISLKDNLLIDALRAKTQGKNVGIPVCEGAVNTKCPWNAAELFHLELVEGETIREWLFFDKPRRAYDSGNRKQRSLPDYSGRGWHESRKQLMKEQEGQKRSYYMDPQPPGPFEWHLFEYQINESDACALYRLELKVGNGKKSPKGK

The target of a further assay is GST-WRKY1(266-371) (UniProt Q9SI37).
Sequence of UniProt Q9SI37 (Q9SI37 266-371): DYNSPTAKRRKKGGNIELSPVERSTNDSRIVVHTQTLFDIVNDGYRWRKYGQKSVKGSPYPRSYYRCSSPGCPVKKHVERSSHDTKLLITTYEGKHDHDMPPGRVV
A further assay deals with GST-NTL6(1-168) (UniProt Q9SCK6).
The target of a further assay is T5, GST-ANAC019 NAC domain (UniProt Q9C932).
T5 sequence: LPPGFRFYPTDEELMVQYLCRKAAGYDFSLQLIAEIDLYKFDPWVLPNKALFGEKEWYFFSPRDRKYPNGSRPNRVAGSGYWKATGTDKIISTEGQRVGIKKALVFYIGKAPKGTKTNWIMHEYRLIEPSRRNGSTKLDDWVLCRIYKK

The target in a further assay is T6, GST-NST2(1-184) (UniProt Q9M274).
T6 sequence: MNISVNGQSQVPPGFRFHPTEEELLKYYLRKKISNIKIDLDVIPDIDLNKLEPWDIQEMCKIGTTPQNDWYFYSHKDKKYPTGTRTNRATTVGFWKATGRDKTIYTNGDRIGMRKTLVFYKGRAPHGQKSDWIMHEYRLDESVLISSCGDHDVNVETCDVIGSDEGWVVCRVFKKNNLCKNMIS

The target of assay [2] is T7, GST-ANAC092(1-285) full length (UniProt Q9FKA0).
T7 sequence: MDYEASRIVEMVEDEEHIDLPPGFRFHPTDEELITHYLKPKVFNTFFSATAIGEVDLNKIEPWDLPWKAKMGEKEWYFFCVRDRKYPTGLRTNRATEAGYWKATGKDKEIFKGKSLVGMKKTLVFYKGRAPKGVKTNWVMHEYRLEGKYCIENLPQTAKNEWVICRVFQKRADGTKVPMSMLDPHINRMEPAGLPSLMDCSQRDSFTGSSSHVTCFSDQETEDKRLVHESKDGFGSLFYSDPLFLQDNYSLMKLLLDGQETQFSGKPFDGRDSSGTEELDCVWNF

For GAAGTAAA, the binding signal with GST-ANAC055(1-171) was 0.107 E-score; in the assay with GST-NAP(1-166) it was 0.0102 E-score; with GST-NTL8 NAC domain, 0.222 E-score; in [1], 0.0837 E-score; in the assay with GST-WRKY1(266-371) it was -0.0673 E-score.
With CGTCAAAC, the binding signal with GST-NTL6(1-168) was 0.0906 E-score; with GST-ANAC019 NAC domain, 0.0928 E-score; in the assay with GST-NAP(1-166), 0.0647 E-score; with GST-NST2(1-184) it was 0.159 E-score; with GST-NTL8 NAC domain it was -0.00245 E-score; in [1], 0.231 E-score.
Regarding AATAGCGT, the binding signal with GST-NTL6(1-168) is 0.0443 E-score; with GST-ANAC019 NAC domain, 0.0147 E-score; in assay [2] it was 0.412 E-score; with GST-NST2(1-184), 0.261 E-score; with GST-NTL8 NAC domain it was -0.0702 E-score; in assay [1], 0.17 E-score.
As to ACGGAAGC, the binding signal was 0.0402 E-score in the assay with GST-NTL8 NAC domain, 0.0581 E-score in assay [1] and -0.0309 E-score with GST-WRKY1(266-371).
For CAACACGC, the binding signal with GST-NTL6(1-168) is 0.0229 E-score; in the assay with GST-NST2(1-184) it was 0.229 E-score; in assay [1], -0.0588 E-score.
On to GTTCCGTA, for which the binding signal was -0.0177 E-score with GST-NTL6(1-168), 0.179 E-score in the assay with GST-NST2(1-184), 0.0478 E-score with GST-NTL8 NAC domain and 0.0106 E-score in assay [1].
With AACACGTC, the binding signal was -0.0491 E-score in the assay with GST-NTL6(1-168), -0.0308 E-score with GST-NTL8 NAC domain and -0.098 E-score in [1].
